Several values for one entry are separate records, joined by “and”; a condition that tells them apart may be missing. Equal entries are not always repeated. Among all 110,000 compounds or so, about 230 (0.21%) showed an effect of 50% or more. This is one part of the list.
Biological target: DPAP1 (Plasmodium falciparum, UniProt Q8IIJ9)
Test: primary screen, percent inhibition; read by cleavage of a fluorogenic dipeptide substrate; higher = more effect of the substance
Design: species or system P. falciparum D10 trophozoite lysates; single well
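Also: 30 min substrate incubation versus DMSO and 10 µM JCP410 controls.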

Chain of DPAP1 (Q8IIJ9 whole entry, looked up): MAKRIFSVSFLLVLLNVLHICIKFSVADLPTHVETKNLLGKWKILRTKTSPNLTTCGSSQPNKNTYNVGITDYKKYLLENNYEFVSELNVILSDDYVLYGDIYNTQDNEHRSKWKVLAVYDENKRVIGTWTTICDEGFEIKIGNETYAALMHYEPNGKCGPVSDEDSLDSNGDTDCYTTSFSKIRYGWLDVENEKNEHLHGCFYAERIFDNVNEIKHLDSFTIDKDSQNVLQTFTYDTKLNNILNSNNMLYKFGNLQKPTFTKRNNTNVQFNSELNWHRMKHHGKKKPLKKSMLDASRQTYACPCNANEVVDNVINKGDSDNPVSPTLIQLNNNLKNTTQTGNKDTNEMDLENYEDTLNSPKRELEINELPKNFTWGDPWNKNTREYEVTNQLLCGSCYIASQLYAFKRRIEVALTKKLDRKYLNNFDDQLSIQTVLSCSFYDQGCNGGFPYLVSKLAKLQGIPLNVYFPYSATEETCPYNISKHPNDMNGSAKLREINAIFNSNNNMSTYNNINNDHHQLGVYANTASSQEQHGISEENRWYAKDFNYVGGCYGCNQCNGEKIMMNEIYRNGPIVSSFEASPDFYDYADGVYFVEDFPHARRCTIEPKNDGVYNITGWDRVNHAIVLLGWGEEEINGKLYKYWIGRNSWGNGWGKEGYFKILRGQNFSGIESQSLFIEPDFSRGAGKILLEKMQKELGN

Row | Structure (SMILES) | % Inhibition @ 10 uM
1 | O=C(O)C1CCN(c2nc3ncccc3nc2-c2ccccc2)CC1 | 0.708%
2 | COC(=O)C1=C(C)NC(=O)NC1c1ccc(C(C)C)cc1 (centres unmarked) | 0.00773%
3 | Cc1cc(C)c(S(=O)(=O)Nc2cc(C)ccc2C)c(C)c1 | 2.46%
4 | CCCCN(CCCC)C(=O)C1CCC(CNS(=O)(=O)c2cccc3nsnc23)CC1 (centres unmarked) | -2.25%
5 | CCN(CC)CCN(CC)Cc1ccccc1C(F)(F)F | -2.95%
6 | Cc1ccccc1-c1nnc(C2CCN(S(=O)(=O)c3ccc4c(c3)CCCC4)CC2)o1 | -8.68%
7 | Nc1ccc(S(=O)(=O)Nc2nc3ccccc3nc2NCCc2ccccc2)cc1 | 3.31%
8 | Cc1ccc(-n2c(SCc3nc(-c4cccs4)no3)nnc2-c2ccncc2)cc1 | 6.01%
9 | CCOC(=O)C1=C(C)N=C2SCC(=O)N2C1c1ccc(N(C)C)cc1 (centres unmarked) | 1.84%
10 | COc1ccc(CCN(Cc2ccccn2)S(=O)(=O)c2ccc(C(C)(C)C)cc2)cc1OC | 0.387%
11 | Cc1n[nH]c(SCC(=O)c2ccc(Cl)cc2)n1 | 2.38%
12 | CC1CCc2c(sc(N)c2C(=O)Nc2cccc3ccccc23)C1 (centres unmarked) | 1.83%
13 | COc1cc2c(cc1OC)CC1(CCCC1)N=C2 | -2.35% and -3.63%
14 | CC(C)(C)c1[nH]nc2c1C(c1cccc3ccccc13)C(C#N)=C(N)O2 (centres unmarked) | 3.65%
15 | Cc1sc2nc(SCC(N)=O)n(-c3ccccc3)c(=O)c2c1C | 6.24%
16 | CC(C)n1c(CNC(=O)c2ccccc2)nc2ccccc21 | -0.228%
17 | CCOc1ccc(CN2CCN(CCO)CC2)cc1 | -2.6%
18 | CCCNC(=O)c1nn2c(C(F)(F)F)cc(-c3ccccc3)nc2c1Br | -3.27%
19 | O=C(CCC(=O)N1CCSc2ncccc21)N1CCCCC1 | -3.34%
20 | CC1CCC(N2CCCCC2CO)CC1 (centres unmarked) | -7.5%
21 | CCOc1ccc(Nc2nc(N)c3ccccc3n2)cc1 | -0.519%
22 | COc1ccc(C(=O)Nc2ccc(S(=O)(=O)Nc3nc(C)cc(C)n3)cc2)cc1 | -2.21%

Row | Structure (SMILES) | % Inhibition @ 10 uM
23 | Cc1cc(OCC(=O)Nc2cccc(Cl)c2)ccc1Br | -3.23%
24 | O=C(Nc1cccc(Br)c1)c1ccc(F)cc1 | 1.48%
25 | CCc1ccccc1NC(=O)CN(c1cc(Cl)ccc1OC)S(C)(=O)=O | 2.02%
26 | CN1CCCN(CC2=CC[C@H]3C[C@@H]2C3(C)C)CC1 | -2.56%
27 | CCc1ccc2oc(-c3ccccc3)c/c(=N\CC(=O)O)c2c1 | 5.44%
28 | CC(C)NC(=O)c1ccc(CSCc2ccccc2Cl)o1 | 2.05%
29 | CCN1CCN(c2oc(/C=C/c3cccs3)nc2C#N)CC1 | 3.27%
30 | Cc1ccc(/C(=C\CN2CCCC2)c2ccccn2)cc1 | 3.48%
31 | CC(C)C[C@H](NC(=O)c1ccc2nc(-c3cccnc3)oc2c1)C(=O)NCC#N | 0.173%
32 | CCOC(=O)C1CCN(C(=O)c2ccc(C#CC3(O)CCCCC3)cc2)CC1 | 2.65%
33 | CCOC(=O)C1CCN(Cc2ccc(C)o2)CC1 | 1.42%
34 | CC(NC(=O)c1cc(-c2ccc(Cl)cc2)[nH]n1)c1ccc2c(c1)OCCO2 (centres unmarked) | 1.39%
35 | Cc1c(C(=O)N2CCCC2)oc2c1-c1nn(CC(=O)NCCCN3CCCC3=O)cc1CC2 | -3.16%
36 | COc1cccc(C(=O)NCCSc2c[nH]c3ccccc23)c1OC | -4.06%
37 | CC(=O)c1cccc(NC(=O)/C(=C\c2cccnc2)NC(=O)c2ccc(C)cc2)c1 | 4.65%
38 | CC(NC(=O)c1cccs1)c1cc2c(cc1Br)OCCCO2 (centres unmarked) | 0.475%
39 | COc1cccc(C2NC(=O)NC(C)=C2C(=O)OC(C)(C)C)c1 (centres unmarked) | 4.74%
40 | O=C(O)CCC(=O)Nc1ccc(N2C(=O)C3C4CCC(C4)C3C2=O)cc1 (centres unmarked) | -7.28%
41 | COC(=O)c1ccccc1Nc1nc(-c2ccccc2)cc(-c2ccc(C)cc2)n1 | -5.62%
42 | CC1CCCC(C)N1CCCNC(=O)Nc1cn(C)c(=O)c2ccccc12 (centres unmarked) | 6.54%
43 | CC(C)NC(=O)c1cnn2c1NC(c1ccc(Br)cc1)CC2C(F)(F)F (centres unmarked) | -4.4%
44 | Cc1cc(O)c2c(O)n(-c3ccccc3)nc2n1 | 0.032%

Row | Structure (SMILES) | % Inhibition @ 10 uM
45 | Cc1ccc(NC(=O)CN(c2cc(C)ccc2C)S(C)(=O)=O)cc1 | 2.42%
46 | c1ccc(N2CCN(CC3CCCCC3)CC2)cc1 | -0.446%
47 | O=c1c2nnn(-c3ccc(F)cc3)c2ncn1C/C=C/c1ccccc1 | -0.431%
48 | CC(=O)NCC1(c2ccccc2)CCOCC1 | 0.11%
49 | Cc1oc2ncn3nc(CCn4c(C)nc5ccccc54)nc3c2c1C | -3%
50 | C=CCc1cc(/C=C2/NC(=O)NC2=O)cc(OC)c1OCc1ccccc1 | 3.15%
51 | Cc1ccc2[nH]c3c(c2c1)CCCC3NC(C)c1ccccc1 (centres unmarked) | -1.15%
52 | COc1cc2nnc3[nH]nc(-c4ccccc4)c3c2cc1OC | 3.76%
53 | CCC(CC)C(=O)Nc1nc(-c2ccccc2)cs1 | 6.91%
54 | CCc1cccc(CC)c1NC(=O)c1cc(OC)cc(OC)c1 | -6.74%
55 | COc1ccccc1/C=C(/NC(=O)c1ccccc1Cl)C(=O)N1CCNCC1 | -6.35%
56 | COc1ccccc1CC(=O)Nc1cc(C)on1 | -5.28%
57 | CN(Cc1ccccc1)S(=O)(=O)c1ccc2c(c1)OCC(C(=O)N1CCCC1)O2 (centres unmarked) | -6.11%
58 | Cc1cc(O)n(-c2nc(-c3ccccc3)cc(-c3ccc(Br)cc3)n2)n1 | 6.53%
59 | Cc1sc2ncn(CC(=O)NCCCC(=O)N3CCC(C)CC3)c(=O)c2c1C | 5.12%
60 | Cc1ccc(NC(=O)c2c([N+](=O)[O-])cnn2C)cc1C | -4.43%
61 | CCC(C)NC(=O)Cn1c(=O)n(CCc2ccccc2)c(=O)c2c(C)c(C)sc21 (centres unmarked) | -1.92%
62 | Cc1ccccc1C1=N/C(=C\C(Cl)=C\c2ccccc2)C(=O)O1 | -0.769%
63 | COc1cc2c(cc1OC)CN(Cc1ccc(C(=O)O)cc1)CC2 | -0.828%
64 | CCN1C(=O)C(=CNc2cccc(Br)c2)C(=O)N(CC)C1=O | -2.87%
65 | O=C(NC1CCCC1)c1cc(-c2ccccc2O)on1 | -0.591%

— paper PMC6919601, “Identification of Plasmodium dipeptidyl aminopeptidase allosteric inhibitors by high throughput screening” (PLoS ONE, 2019)
